Laboratory results reported in PubChem BioAssay AID485313 (National Center for Advancing Translational Sciences (NCATS), 2010).
In all, about 320,000 compounds went through this assay and about 7,600 (2.4%) were called active. Inconclusive results, whose numbers are uncertain, are shown with a selection of clear calls. The call rests on the fitted dose curve; in most records, active means well fitted activation curve with a large enough effect; inconclusive means small, poorly fitted or top-dose-only effect; inactive means no such curve, though single readings can be large or run the other way. Potencies of inconclusive entries are doubtful fits and often do not repeat.

Experiment: qHTS Assay for NPC1 Promoter Activators; further: nearly all actives have a fitted effect of over 60% in size;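 on activation: reporter is driven by a mutant NPC1 promoter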
Conditions: Huh7 NPC1 promoter luciferase reporter, 24 h; series mostly up to 9.22 µM
In short: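 Luciferase expression driven by the NPC1 promoter was measured in stably transfected Huh7 cells after a 24 h compound incubation, using a luciferase reagent and a luminescence read.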
Potency means the concentration at half of the fitted maximal effect; tags describe the fitted curve by direction and shape.

Potency, inactive:
CC(=O)NS(=O)(=O)c1ccc(NC(=O)c2cc(-c3cccs3)nc3ccccc23)cc1, CCCn1c(=O)n(C)c(=O)c2c(SCC(=O)Nc3cc(C)on3)nc(C(C)(C)C)nc21, COc1ccc(-c2csc(NC(=O)c3ccc(S(C)(=O)=O)cc3)n2)cc1, O=C1CCCC(O)=C1N=Nc1ccc(C(=O)O)cc1, CCCN(CCC)CCCNC(=O)c1ccc2c(Cl)c3c(nc2c1)CCC3, COc1ccc(C2(C)NC(=O)N(CC(=O)Nc3ccc(S(=O)(=O)N4CCCC4)cc3)C2=O)cc1 (stereo unspecified), N#Cc1cnn2ccc(-c3ccc4c(c3)CCC4)nc12, Nc1nc(CN2CCCCCC2)nc(Nc2ccccc2)n1, COc1ccc(C(=O)NC(=S)N2CCOCC2)cc1OC, CCOC(=O)CC1COc2ccccc2N1C(=O)c1cccc([N+](=O)[O-])c1 (stereo unspecified), Cc1ccc(Cl)cc1NC(=O)c1cccc(OC(F)F)c1, CSc1nc(C)cc(OCCO)n1, Cc1ccc(C)c(S(=O)(=O)Nc2ccc(C(=O)NCCc3ccccn3)cc2)c1, CCc1ccc2c(Cl)c(C(=O)N/N=C/c3c[nH]c4ccccc34)sc2c1, CCCCn1c(N)c(N(CCOC)C(=O)c2cccc(S(=O)(=O)N(CC)c3ccccc3)c2)c(=O)[nH]c1=O, Nn1c(-c2ccc(F)cc2)nc2ccccc2c1=O, Cc1ccccc1OCCN1C(=O)NC2(CCc3ccccc32)C1=O (stereo unspecified), COCCNC(=O)c1ccc(CS(=O)(=O)c2ccccc2OC)o1

Potency, active:
COc1ccc(-c2cc3nc4ccccc4n3c(N)c2C#N)cc1 1.78 µM, C[C@@H](CO)NC(=O)c1ccc2c3n(nc2c1)-c1ccc(Cl)cc1CO3 1.41 µM, CC(C)COC(=O)c1ccc(NC(=O)C2C3C=CC(C3)C2C(=O)O)cc1 (stereo unspecified) 2.24 µM, O=C(NC(=O)c1ccccc1)Nc1ccc(Cl)cn1 0.631 µM, CCCCNC(=O)c1cc(-c2ccc(F)cc2)on1 3.55 µM, N/C(=N\OC(=O)COc1cc(Cl)c(Cl)cc1Cl)c1ccccn1 0.794 µM, CCOC(=O)c1ccccc1NC(=O)c1cn(CC)c2nc(C)ccc2c1=O 1 µM, O=c1c2c(nc3cc(-c4ccc(Cl)cc4)[nH]n13)CCS2 3.55 µM

Potency, inconclusive:
CCOC(=O)CSc1nc2cc(C)cc(C)c2cc1C#N 3.55 µM [activator, single point], C=CCn1c(SCC(N)=O)nnc1-c1cc2c(s1)CCC(CC)C2 (stereo unspecified) 3.16 µM [activator, partial curve], Nc1ccc2nc(-c3ccc(N)c(Cl)c3)[nH]c2c1 5.62 µM [activator, single point], Cc1ccc(/C=N/Nc2ccccn2)s1 1.26 µM [activator, partial curve], COc1ccc(-c2nnc(SCC(=O)N3CCOCC3)o2)cc1 3.55 µM [activator, partial curve], COc1ccc(C(=O)Nc2ccc(N3CCN(C)CC3)cc2)cc1 1.58 µM [activator, partial curve], CCOC(=O)c1nn(-c2ccccc2)cc1O 2.82 µM [activator, partial curve], COc1ccccc1CNC(=O)Cc1ccccc1 3.16 µM [activator, partial curve], CCOCCCNC(=O)C1CCN(Cc2ccc(OCc3ccccc3)c(OC)c2)CC1 2.51 µM [activator, partial curve], O=[N+]([O-])c1ccc(/C=N/N/C(=N/c2ccccn2)c2ccccn2)cc1 3.98 µM [activator, partial curve], COCC(=O)n1nc(-c2ccccc2)nc1NCc1ccc(N(C)C)cc1 3.55 µM [activator, single point], Cc1ccc2nc(-c3ccc(SCC(=O)Nc4cc(C)on4)nc3)[nH]c2c1 3.16 µM [activator, single point], Cc1ccccc1C(=O)O/N=C(\N)Cc1cccs1 4.47 µM [activator, single point], N#C/C(=C\c1ccc(-c2ccc(C(=O)O)cc2)o1)C(=O)Nc1ccc(F)cc1 1.58 µM [activator, partial curve], COc1ccc(Nc2ncccc2C(=O)O)cc1 3.55 µM [activator, partial curve], O=C(CN1CCCCCC1)Nc1ccc(Br)cc1Br 5.62 µM [activator, single point], Fc1ccc(-c2nc3n(n2)Cc2ccccc2-3)cc1 2.82 µM [activator, partial curve], Cc1ccc(NC(=O)/C(C#N)=C(\N)C(Cl)(Cl)Cl)nc1 1.41 µM [activator, partial curve], O=C(O)c1ccc(COc2ccc(CO)cc2Cl)cc1 3.16 µM [activator, partial curve], O=C(Nc1ccc2ccccc2n1)c1ccccc1Br 3.55 µM [activator, single point], Cc1ccc(C(=O)OCC(=O)c2c[nH]c3ccccc23)cc1 2.51 µM [activator, partial curve], Oc1[nH]c2ccccc2c1N=Nc1ccccc1F 5.62 µM [activator, single point], Oc1c(Br)cc(/C=N/Nc2nncc3ccccc23)cc1Br 3.16 µM [activator, single point], Cc1ccc(-c2nnc(-c3cccc(Br)c3)o2)cc1 3.16 µM [activator, partial curve], c1ccc2c(C3=NNC(=NC4CC4)SC3)c[nH]c2c1 0.447 µM [activator, partial curve], CCC(=O)Nc1ccc(-c2cc3ccccc3oc2=O)cc1 1 µM [activator, full curve], Nc1c(-c2ccccc2)cnn1-c1ccc(C(=O)O)cc1 0.447 µM [activator, partial curve], CC(C)C(=O)Nc1nnc(NC(=S)Nc2ccccc2)s1 3.16 µM [activator, partial curve], O=C(NCc1csc(-c2cccs2)n1)C1CC1 2.24 µM [activator, partial curve], COc1ccc(CC(=O)c2ccc(O)cc2O)cc1 3.55 µM [activator, partial curve], O=C(CCc1ccccc1)N1CCCC1 1.12 µM [activator, single point], COC(=O)C(C(=O)OC)c1ccc(NC(=O)c2cccc(Cl)c2)cc1 2.51 µM [activator, partial curve], C=CCn1c(O)c(N=Nc2ccccc2O)c2ccccc21 3.16 µM [activator, single point], COc1ccc(C(=O)Nc2cccc(OC(=O)c3ccc(C)c(C)c3)c2)cc1 3.55 µM [activator, single point], COc1ccc(NC(=O)CN2C(=O)NC3(CCCC3)C2=O)cc1 0.891 µM [activator, single point], Cc1ccc(N=Nc2c(N)n[nH]c2N)cc1 6.31 µM [activator, single point], CCCN1CCC(=O)N(CCSc2ccc(C)cc2)CC1 3.55 µM [activator, single point], CCCc1cc(=O)n2[nH]c(-c3ccc(Br)cc3)cc2n1 5.62 µM [activator, single point], Cc1ccc(Nc2nc(CSc3nnc(-c4ccccc4)n3C)cs2)cc1 5.62 µM [activator, single point], CCCN=Cc1sc2ccc(OCC)cc2c1O 2.51 µM [activator, partial curve], COc1ccc(Cc2nnc(NC(=O)Nc3ccc(C)cc3)s2)cc1OC 5.62 µM [activator, single point], Clc1ccc(-c2nc3ccccc3[nH]2)cn1 5.62 µM [activator, single point], CC(C)c1cc(C(=O)N/N=C/c2ccco2)n[nH]1 5.62 µM [activator, single point], Cc1cc(C(=O)Nc2sc3c(c2C#N)CCCCC3)cs1 5.62 µM [activator, single point], O=C(O)c1ccccc1Nc1cccc(OCc2ccc3ccccc3n2)c1 23.1 µM [activator, single point], Cc1ccsc1C=C1C(=O)c2ccccc2C1=O 3.55 µM [activator, single point], Cc1ccc2cc(/C=C/C(=O)c3ccco3)c(Cl)nc2c1 2.51 µM [activator, partial curve], COCCSc1nnc(NC(=O)C(C)(C)C)s1 5.62 µM [activator, single point], O=C(NC(=S)Nc1ccccc1)c1ccc(Br)o1 3.55 µM [activator, single point], COP(=O)(OC)c1nc(-c2ccc(C)cc2)oc1N1CCCCC1 1 µM [activator, single point]
